The results in this text go back to PMC4336329 (PLoS ONE, 2015).

Hit rate of the full screen: of about 310,000 compounds, about 14,000 (4.5%) showed an effect of 50% or more. The effect is printed as a negative number. The list shows a part of the results.
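Note: peak tail current of the secondary pulse compared with the same well before compound.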

The target of this experiment is human ether-à-go-go-related gene (hERG) potassium channel (human, UniProt Q12809). The experiment can be described thus: primary screen, population patch clamp on CHO cells stably expressing hERG.
Chain of human ether-à-go-go-related gene (hERG) potassium channel (Q12809 whole entry, looked up): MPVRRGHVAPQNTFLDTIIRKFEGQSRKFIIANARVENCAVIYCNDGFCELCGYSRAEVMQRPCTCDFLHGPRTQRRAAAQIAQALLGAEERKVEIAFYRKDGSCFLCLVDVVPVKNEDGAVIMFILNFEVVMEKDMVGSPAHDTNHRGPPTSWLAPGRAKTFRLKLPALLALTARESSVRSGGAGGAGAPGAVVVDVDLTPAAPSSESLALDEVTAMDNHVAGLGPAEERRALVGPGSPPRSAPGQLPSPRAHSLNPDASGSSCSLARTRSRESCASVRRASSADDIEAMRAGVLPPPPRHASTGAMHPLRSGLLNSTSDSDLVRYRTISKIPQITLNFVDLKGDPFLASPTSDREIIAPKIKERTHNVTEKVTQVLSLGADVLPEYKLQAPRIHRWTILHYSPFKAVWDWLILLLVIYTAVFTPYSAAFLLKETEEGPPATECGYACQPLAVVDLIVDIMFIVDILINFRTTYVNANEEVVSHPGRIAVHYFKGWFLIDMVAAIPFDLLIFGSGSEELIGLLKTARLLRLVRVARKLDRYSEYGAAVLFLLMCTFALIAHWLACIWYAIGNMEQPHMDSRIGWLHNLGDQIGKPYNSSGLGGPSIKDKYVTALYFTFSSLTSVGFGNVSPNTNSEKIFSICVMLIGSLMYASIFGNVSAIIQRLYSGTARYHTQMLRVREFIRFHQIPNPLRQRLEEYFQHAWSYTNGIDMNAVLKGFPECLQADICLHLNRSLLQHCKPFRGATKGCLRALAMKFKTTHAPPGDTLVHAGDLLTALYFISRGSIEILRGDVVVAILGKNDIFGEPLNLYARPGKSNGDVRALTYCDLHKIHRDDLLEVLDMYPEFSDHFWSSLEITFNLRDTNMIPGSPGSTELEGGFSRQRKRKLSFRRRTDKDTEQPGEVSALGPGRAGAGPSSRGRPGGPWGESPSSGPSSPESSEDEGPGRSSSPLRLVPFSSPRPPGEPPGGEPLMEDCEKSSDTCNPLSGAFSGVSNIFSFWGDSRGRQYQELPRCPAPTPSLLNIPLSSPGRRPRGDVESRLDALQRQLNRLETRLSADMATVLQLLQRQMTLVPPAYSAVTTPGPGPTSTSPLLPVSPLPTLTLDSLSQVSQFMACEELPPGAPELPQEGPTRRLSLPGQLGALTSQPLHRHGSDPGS
Take `Cc1ccc(Sc2cc(C(=O)NCCN(C)C)c3ccccc3n2)cc1`: the “hERG current change (%, negative = inhibition) at 10uM” value is recorded as -93.9%. Consider `O=C(Nc1ccc(-n2cnnn2)cc1)C1CCCN1C(=O)Nc1ccc(Br)cc1` (stereo not drawn), for which the “hERG current change (%, negative = inhibition) at 10uM” value is -79.9%.

`O=C(CCn1nc(-c2ccccc2)ccc1=O)N1CCCC1`: the “hERG current change (%, negative = inhibition) at 10uM” value is on record as -45%. With `COc1ccc(CN2C(=O)c3cccnc3C2=O)cc1S(=O)(=O)NCc1ccccc1`, the “hERG current change (%, negative = inhibition) at 10uM” value is reported as -13.1%.

Consider `Cc1ccc(N2C(=O)C3C4C=CC(CNC(=S)N5CCN(c6cccc(C)c6)C(C)C5)(O4)C3C2=O)cc1` (stereo not drawn), for which the “hERG current change (%, negative = inhibition) at 10uM” value is reported as -11%.

Turning to `Cc1ccn(CCC(=O)N2CCCC(CCC(=O)N3CCN(c4ccccn4)CC3)C2)n1` (stereo not drawn), the “hERG current change (%, negative = inhibition) at 10uM” value is recorded as 3.74%. With `CCOC(=O)N1CCN(CCC(=O)Nc2cc(OC)ccc2OC)CC1` the figure was -2.7%; with `NC(=O)c1cc(-c2csc(-c3cccnc3)n2)ccc1O`, 5.27%.

With `c1ccc(N=C(c2cccs2)N2CCOCC2)cc1`, the “hERG current change (%, negative = inhibition) at 10uM” value worked out at 17.4%. With `COc1ccccc1C(=O)OC(C)CN1CCN(C)CC1.Cl` (stereo not drawn) the figure was 8.56%; with `COc1ccc(C(=O)Nc2ccc(NC(=O)c3ccco3)c(Cl)c2)cc1OC`, 3.19%; with `Cn1c(SCC(=O)N2c3ccccc3Sc3ccccc32)nc2ccccc21`, -4.56%. With `CCc1ccc(NC(=O)COC(=O)CCc2nc3cc(S(=O)(=O)N(CC)CC)ccc3n2C)cc1` the figure was -60%; with `O=C(NCCN1CCOCC1)Nc1ccc(F)cc1`, 37.3%; with `CC1(C)CCc2cc(-c3ccn(S(=O)(=O)c4ccccc4Cl)n3)ccc2O1`, 9.53%. `CCOC(=O)C(C)Sc1nc2c(c(=O)[nH]c(=O)n2C)n1C/C=C(/C)Cl` (stereo not drawn): the “hERG current change (%, negative = inhibition) at 10uM” value was -72.8%.

For the compound `CCOC(=O)C1=C(COC(=O)c2ccccc2OC(F)F)NC(=O)NC1C` (stereo not drawn), the “hERG current change (%, negative = inhibition) at 10uM” value is reported as 5.86%. In the case of `Cn1ccc(NC(=O)c2ccc(Cl)cc2Cl)n1` it was 7.79%.

Turning to `CCOc1ccc(C(=O)CCNC(Cc2cnc[nH]2)C(=O)O)cc1` (stereo not drawn), the “hERG current change (%, negative = inhibition) at 10uM” value is -1.69%. As for `CCOc1ccccc1/C=N/NC(=O)c1cccc(Cl)c1`, the “hERG current change (%, negative = inhibition) at 10uM” value was 5.46%. In the case of `O=c1[nH]c(=O)n(-c2ccccc2F)c(O)c1C=NCCC1=CCCCC1` it was 25.6%; in that of `Cc1cccc(-n2c(SCC(=O)N(C)C3CCS(=O)(=O)C3)nc3ccccc3c2=O)c1C` (stereo not drawn), -2.19%. Take `O=C(COc1ccc(S(=O)(=O)N2CCOCC2)cc1)NCC1CCCO1` (stereo not drawn): the “hERG current change (%, negative = inhibition) at 10uM” value is on record as -15.1%.

Consider `Cc1cc(C(=O)CSc2ncccn2)c(C)n1-c1cccc(F)c1`, for which the “hERG current change (%, negative = inhibition) at 10uM” value is -5.48%.
